In test [1] the test system is RAW-Dual. The test is described as follows: NF-kB SEAP reporter activity, fold change vs agonist alone; higher = enhanced NF-kB activity. In short, it runs like this:
(§1)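 Cytotoxic wells were those whose IncuCyte confluency was below 70% of agonist controls in both mask sets. The cells were RAW-Dual macrophages at 50,000 cells/well in DMEM on 384-well plates, dosed with 50 nL of library stock by pin tool, stimulated with a PRR agonist 1 h later, and kept at 37 °C, 5% CO2 for 20 hours. IRF and NF-κB reporter activity, as fold change over agonist-alone wells, came from supernatant read by QuantiLuc luminescence and QuantiBlue absorbance, respectively.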

The subject of test [2] is RAW-Dual. The test is described as follows: NF-kB SEAP reporter activity, fold change vs agonist alone; cytotoxicity flag (confluency mask): not cytotoxic; higher = enhanced NF-kB activity. In short, it runs like this: as §1
For test [3], the system named is RAW-Dual. The test can be described thus: NF-kB SEAP reporter activity, fold change vs agonist alone; cytotoxicity flag (confluency mask): cytotoxic (confluency <70% of control); higher = enhanced NF-kB activity. The procedure, abridged: as §1
Setting [4] is: library stock concentration (final ~1000-fold dilution): 10 mM, cytotoxicity flag (confluency mask): not cytotoxic, agonist: Imiquimod (TLR7) […].
Where [5] appears, read: library stock concentration (final ~1000-fold dilution): 10 mM, cytotoxicity flag (confluency mask): not cytotoxic, agonist: MPLA (TLR4) […].
The mark [6] stands for this setting: agonist: ODN 1826 (TLR9) 0.5 ug/mL.
The mark [7] stands for this setting: agonist: Pam2CSK4 (TLR2/6) 0.1 ug/mL.
The mark [8] stands for this setting: agonist: Pam3CSK4 (TLR2/1) 0.1 ug/mL.
Setting [9] is: library stock concentration (final ~1000-fold dilution): 10 mM, cytotoxicity flag (confluency mask): cytotoxic (confluency <70% of control), agonist: Imiquimod (TLR7) […].
The mark [10] stands for this setting: library stock concentration (final ~1000-fold dilution): 10 mM, cytotoxicity flag (confluency mask): cytotoxic (confluency <70% of control), agonist: MPLA (TLR4) […].

The structures appear in SMILES notation. Over roughly 2,900 compounds, “NF-kB SEAP reporter activity, fold change vs agonist alone” has its median near 0.99; the highest 2% begin near 2.6. The list shows a part of the results.

In the case of `OC(Cn1cncn1)(Cn1cncn1)c1ccc(F)cc1F`, the “NF-kB SEAP reporter activity” value in the test on RAW-Dual [1] (setting [4]) was 0.936; with RAW-Dual [1] (setting [5]) it was 0.954.
As to `OC(Cn1cncn1)(Cn1cncn1)c1ccc(F)cc1F` (library stock concentration (final ~1000-fold dilution): 10 mM), the “NF-kB SEAP reporter activity” value in the test on RAW-Dual [2] (agonist: LPS (TLR4) 0.1 ug/mL) stood at 1.33; with RAW-Dual [2] (setting [6]) it was 0.995; in the test with RAW-Dual [2] (setting [7]), 1.07; with RAW-Dual [2] (setting [8]), 1.07.
Turning to `Cc1ccsc1C(=CCCN1CCCC(C(=O)O)C1)c1sccc1C` (stereo not given) (library stock concentration (final ~1000-fold dilution): 10 mM), the “NF-kB SEAP reporter activity” value with RAW-Dual [2] (agonist: LPS (TLR4) 0.1 ug/mL) came out at 1.07; with RAW-Dual [2] (setting [6]), 0.887; with RAW-Dual [2] (setting [7]), 1.09; with RAW-Dual [2] (setting [8]), 1.1.
For the molecule `Cc1ccsc1C(=CCCN1CCCC(C(=O)O)C1)c1sccc1C` (stereo not given), the “NF-kB SEAP reporter activity” value with RAW-Dual [1] (setting [5]) was 1.04.
`CC(C)Oc1ccc(-c2c[nH]cc2CN(C)CCN)cc1`: the entries for the “NF-kB SEAP reporter activity” value in the test with RAW-Dual [1] (setting [4]) and in the test with RAW-Dual [1] (setting [5]) were 1.31 and 1.07, respectively.
Consider `CC(C)Oc1ccc(-c2c[nH]cc2CN(C)CCN)cc1` (library stock concentration (final ~1000-fold dilution): 10 mM), for which the “NF-kB SEAP reporter activity” value with RAW-Dual [2] (agonist: LPS (TLR4) 0.1 ug/mL) came to 1.08; with RAW-Dual [2] (setting [6]) it was 0.258; in the test with RAW-Dual [2] (setting [7]), 0.578; in the test with RAW-Dual [2] (setting [8]), 0.592.
As for `NS(=O)(=O)c1cc(C2(O)NC(=O)c3ccccc32)ccc1Cl` (stereo not given) (library stock concentration (final ~1000-fold dilution): 10 mM), the “NF-kB SEAP reporter activity” value came to 0.972 with RAW-Dual [2] (agonist: LPS (TLR4) 0.1 ug/mL), 0.954 in the test on RAW-Dual [2] (setting [6]), 1.12 with RAW-Dual [2] (setting [7]) and 1.07 in the test on RAW-Dual [2] (setting [8]).
Take `NS(=O)(=O)c1cc(C2(O)NC(=O)c3ccccc32)ccc1Cl` (stereo not given): the “NF-kB SEAP reporter activity” value in the test on RAW-Dual [1] (setting [4]) came out at 1.04; in the test on RAW-Dual [1] (setting [5]) it was 1.03.
Consider `O=C(NCc1c(F)cc(F)cc1F)c1cn2c(c(O)c1=O)C(=O)N1C3CCC(C3)OC1C2` (stereo not given) (library stock concentration (final ~1000-fold dilution): 10 mM), for which the “NF-kB SEAP reporter activity” value with RAW-Dual [3] (agonist: LPS (TLR4) 0.1 ug/mL) is 0.84; with RAW-Dual [3] (setting [6]), 0.276; in the test with RAW-Dual [3] (setting [7]) it was 1.02; in the test on RAW-Dual [3] (setting [8]), 0.61.
For `O=C(NCc1c(F)cc(F)cc1F)c1cn2c(c(O)c1=O)C(=O)N1C3CCC(C3)OC1C2` (stereo not given), the “NF-kB SEAP reporter activity” value was 2.27 in the test on RAW-Dual [1] (setting [9]) and 1.46 with RAW-Dual [1] (setting [10]).
On the same counts, the results for `CC(C)(C)c1cnc(CSc2cnc(NC(=O)C3CCNCC3)s2)o1` are 0.249 and 0.249.
Turning to `CC(C)(C)c1cnc(CSc2cnc(NC(=O)C3CCNCC3)s2)o1` (library stock concentration (final ~1000-fold dilution): 10 mM), the “NF-kB SEAP reporter activity” value with RAW-Dual [3] (agonist: LPS (TLR4) 0.1 ug/mL) stood at 0.28; in the test on RAW-Dual [3] (setting [6]) it was 0.28; with RAW-Dual [3] (setting [7]), 0.101; in the test with RAW-Dual [3] (setting [8]) it was 0.191.
Turning to `COc1cc(Br)c(Nc2nc(-c3c(C)nc4ncccn34)cs2)c(Br)c1` (library stock concentration (final ~1000-fold dilution): 10 mM), the “NF-kB SEAP reporter activity” value in the test with RAW-Dual [2] (agonist: LPS (TLR4) 0.1 ug/mL) is 1.97; in the test with RAW-Dual [2] (setting [6]), 1.99; in the test with RAW-Dual [2] (setting [7]), 0.309; in the test on RAW-Dual [2] (setting [8]), 0.927.
For `COc1cc(Br)c(Nc2nc(-c3c(C)nc4ncccn34)cs2)c(Br)c1`, the “NF-kB SEAP reporter activity” value in the test with RAW-Dual [1] (setting [4]) amounted to 1.41; with RAW-Dual [1] (setting [5]) it was 2.42.
On the same counts, the results for `CC(C)Oc1ccc(-c2nn(C(C)c3oc4ccc(F)cc4c(=O)c3-c3cccc(F)c3)c3ncnc(N)c23)cc1F` (stereo not given) are 1.05 and 1.14.
Turning to `CC(C)Oc1ccc(-c2nn(C(C)c3oc4ccc(F)cc4c(=O)c3-c3cccc(F)c3)c3ncnc(N)c23)cc1F` (stereo not given) (library stock concentration (final ~1000-fold dilution): 10 mM), the “NF-kB SEAP reporter activity” value worked out at 0.919 in the test with RAW-Dual [2] (agonist: LPS (TLR4) 0.1 ug/mL), 0.522 in the test on RAW-Dual [2] (setting [6]), 0.308 in the test on RAW-Dual [2] (setting [7]) and 0.479 in the test with RAW-Dual [2] (setting [8]).
On the same counts, the results for `CN1C(=O)c2sccc2N(C)c2nc(Nc3ccc(S(N)(=O)=O)cc3)ncc21` (library stock concentration (final ~1000-fold dilution): 10 mM) are 5.75, 3.02, 1.22 and 2.56.
For the molecule `CN1C(=O)c2sccc2N(C)c2nc(Nc3ccc(S(N)(=O)=O)cc3)ncc21`, the “NF-kB SEAP reporter activity” value in the test on RAW-Dual [1] (setting [4]) came to 1.86; with RAW-Dual [1] (setting [5]) it was 2.45.
Regarding `Cl.NCc1c[nH]c(=S)n1C1CCc2c(F)cc(F)cc2C1` (stereo not given) (library stock concentration (final ~1000-fold dilution): 10 mM), the “NF-kB SEAP reporter activity” value in the test with RAW-Dual [2] (agonist: LPS (TLR4) 0.1 ug/mL) amounted to 0.779; with RAW-Dual [2] (setting [6]) it was 0.895; in the test on RAW-Dual [2] (setting [7]), 0.82; in the test on RAW-Dual [2] (setting [8]), 0.904.
As for `Cl.NCc1c[nH]c(=S)n1C1CCc2c(F)cc(F)cc2C1` (stereo not given), the “NF-kB SEAP reporter activity” value was 1.12 in the test with RAW-Dual [1] (setting [4]) and 0.889 with RAW-Dual [1] (setting [5]).
Regarding `COC1CC2CCC(C)C(O)(O2)C(=O)C(=O)N2CCCCC2C(=O)OC(C(C)CC2CCC(O)C(OC)C2)CC(=O)C(C)C=C(C)C(O)C(OC)C(=O)C(C)CC(C)C=CC=CC=C1C` (stereo not given), the “NF-kB SEAP reporter activity” value with RAW-Dual [1] (setting [4]) turned out to be 1.44; in the test with RAW-Dual [1] (setting [5]) it was 1.5; in the test with RAW-Dual [1] (library stock concentration (final ~1000-fold dilution): .1 mM, cytotoxicity flag (confluency mask): not cytotoxic, agonist: Imiquimod (TLR7) […]) it was 1.35; in the test on RAW-Dual [1] (library stock concentration (final ~1000-fold dilution): .1 mM, cytotoxicity flag (confluency mask): not cytotoxic, agonist: MPLA (TLR4) […]), 1.19.
On to `COC1CC2CCC(C)C(O)(O2)C(=O)C(=O)N2CCCCC2C(=O)OC(C(C)CC2CCC(O)C(OC)C2)CC(=O)C(C)C=C(C)C(O)C(OC)C(=O)C(C)CC(C)C=CC=CC=C1C` (stereo not given) (library stock concentration (final ~1000-fold dilution): 10 mM), for which the “NF-kB SEAP reporter activity” value in the test with RAW-Dual [2] (agonist: LPS (TLR4) 0.1 ug/mL) was 1.57; in the test on RAW-Dual [2] (setting [6]), 1.11; in the test with RAW-Dual [2] (setting [7]), 0.536; in the test on RAW-Dual [2] (setting [8]) it was 0.77.
Take `COC1CC2CCC(C)C(O)(O2)C(=O)C(=O)N2CCCCC2C(=O)OC(C(C)CC2CCC(O)C(OC)C2)CC(=O)C(C)C=C(C)C(O)C(OC)C(=O)C(C)CC(C)C=CC=CC=C1C` (stereo not given) (library stock concentration (final ~1000-fold dilution): .1 mM): the “NF-kB SEAP reporter activity” value was 1.2 with RAW-Dual [2] (agonist: LPS (TLR4) 0.1 ug/mL), 1.31 in the test with RAW-Dual [2] (setting [6]), 1.53 with RAW-Dual [2] (setting [7]) and 1.44 in the test on RAW-Dual [2] (setting [8]).
The like results for `CN1CCC(OC(c2ccccc2)c2ccccc2)CC1.Cl` (library stock concentration (final ~1000-fold dilution): 10 mM) were, in that order, 1.15, 0.662, 1.01 and 0.852.

These data come from the supplement of paper PMC10037445.
